Measurements reported in paper PMC6713926.

Target: T1, WT FP, recombinant oligomeric properdin (human), P27918
T1 chain: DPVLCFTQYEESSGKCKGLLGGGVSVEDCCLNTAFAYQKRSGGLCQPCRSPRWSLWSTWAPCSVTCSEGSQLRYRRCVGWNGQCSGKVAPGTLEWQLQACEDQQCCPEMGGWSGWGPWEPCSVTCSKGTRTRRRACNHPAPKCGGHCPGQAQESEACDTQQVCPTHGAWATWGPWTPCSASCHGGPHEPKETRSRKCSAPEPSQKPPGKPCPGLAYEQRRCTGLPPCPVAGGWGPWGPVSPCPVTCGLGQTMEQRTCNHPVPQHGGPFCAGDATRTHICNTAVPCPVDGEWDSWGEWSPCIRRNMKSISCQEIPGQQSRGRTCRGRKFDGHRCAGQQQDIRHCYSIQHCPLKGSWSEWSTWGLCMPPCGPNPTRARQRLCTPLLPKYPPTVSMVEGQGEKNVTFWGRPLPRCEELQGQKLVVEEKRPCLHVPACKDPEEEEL
Experiment: SEC; oligomer content of purified FP preparations on a 24 mL Superdex200 increase
Settings: remark: other sources report otherwise

B1: WT FP, recombinant oligomeric properdin, P27918 28-469 (natural protein)
chain: T1 chain
- stoichiometry N: 2 and 3

“And” between values parts separate entries of the source, which are not always exact repeats. Equal entries are not always repeated.
